Literature values as cited in article PMC11006913.
This is one part of the list.

How the values were obtained:
Settings in all cases: PBM; conditions not shown; double strand, one strand shown; scale: upbm affinity estimate (log intensity, higher = more binding, comparable within an allelic series)
[1] = target: ARX (Homo sapiens) (UniProt Q96QS3)
[2] = target: ARX L343Q (Homo sapiens) (UniProt Q96QS3)
[3] = target: ARX P353L (Homo sapiens) (UniProt Q96QS3)
[4] = target: ARX P353R (Homo sapiens) (UniProt Q96QS3)
[5] = target: ARX R332H (Homo sapiens) (UniProt Q96QS3)
[6] = target: ARX T333N (Homo sapiens) (UniProt Q96QS3)

CCCAGGGC [8-mer CCCAGGGC]
binding signal [1]: 10.1 | binding signal [2]: 10.1 | binding signal [3]: 10.1 | binding signal [4]: 10.1 | binding signal [5]: 10.2 | binding signal [6]: 10.3

CGATTAGC [8-mer CGATTAGC]
binding signal [1]: 11.9 | binding signal [2]: 10.6 | binding signal [3]: 11.8 | binding signal [4]: 10.5 | binding signal [5]: 10.6

CGCCGCTA [8-mer CGCCGCTA]
binding signal [1]: 10.2 | binding signal [2]: 10.1 | binding signal [3]: 10.2 | binding signal [4]: 10.1 | binding signal [5]: 10.1 | binding signal [6]: 10.4

CTTAATGC [8-mer CTTAATGC]
binding signal [1]: 11.5 | binding signal [2]: 10.7 | binding signal [3]: 11.2 | binding signal [4]: 10.6 | binding signal [5]: 10.7

AACAAATT [8-mer AACAAATT]
binding signal [1]: 11.9 | binding signal [2]: 10.8 | binding signal [3]: 11.5 | binding signal [4]: 10.7 | binding signal [5]: 10.9 | binding signal [6]: 11.3

GATTTACA [8-mer GATTTACA]
binding signal [1]: 11.1 | binding signal [2]: 10.7 | binding signal [3]: 11

AATAAGTA [8-mer AATAAGTA]
binding signal [1]: 11.6 | binding signal [2]: 10.8 | binding signal [3]: 11.3 | binding signal [4]: 10.7 | binding signal [5]: 11

GCGGCGGA [8-mer GCGGCGGA]
binding signal [1]: 10.3 | binding signal [2]: 10 | binding signal [3]: 10.2 | binding signal [4]: 10.1 | binding signal [5]: 10 | binding signal [6]: 10.2

CCGCCGCC [8-mer CCGCCGCC]
binding signal [1]: 10.1 | binding signal [2]: 9.98 | binding signal [3]: 10 | binding signal [4]: 9.87 | binding signal [5]: 10 | binding signal [6]: 10.2

CGTAATCA [8-mer CGTAATCA]
binding signal [1]: 12 | binding signal [2]: 10.7 | binding signal [3]: 11.6 | binding signal [4]: 10.8 | binding signal [5]: 10.9

CAAGCTTG [8-mer CAAGCTTG]
binding signal [1]: 10.2 | binding signal [2]: 10.2 | binding signal [3]: 10.2 | binding signal [4]: 10.3 | binding signal [5]: 10.3 | binding signal [6]: 10.3

TCGGGCCA [8-mer TCGGGCCA]
binding signal [1]: 10.3 | binding signal [2]: 10.1 | binding signal [3]: 10.3 | binding signal [4]: 10.1 | binding signal [5]: 10.2 | binding signal [6]: 10.2

GCGGGTCC [8-mer GCGGGTCC]
binding signal [1]: 10.2 | binding signal [2]: 10.1 | binding signal [3]: 10.2 | binding signal [4]: 10.1 | binding signal [5]: 10.1 | binding signal [6]: 10.1

GACCAGGC [8-mer GACCAGGC]
binding signal [1]: 10.3 | binding signal [2]: 10.1 | binding signal [3]: 10.4 | binding signal [4]: 10.1 | binding signal [5]: 10.1 | binding signal [6]: 10.2

CGCGAGCG [8-mer CGCGAGCG]
binding signal [1]: 10.4 | binding signal [2]: 10.2 | binding signal [3]: 10.3 | binding signal [4]: 10.2 | binding signal [5]: 10.2 | binding signal [6]: 10.4

ACCGCGGG [8-mer ACCGCGGG]
binding signal [1]: 10.3 | binding signal [2]: 10.3 | binding signal [3]: 10.3 | binding signal [4]: 10.2 | binding signal [5]: 10.3 | binding signal [6]: 10.3

AGAGTAAT [8-mer AGAGTAAT]
binding signal [1]: 11.5 | binding signal [2]: 10.7 | binding signal [3]: 11.3 | binding signal [4]: 10.7 | binding signal [5]: 10.9

CGCGCTCC [8-mer CGCGCTCC]
binding signal [1]: 10.2 | binding signal [2]: 10.2 | binding signal [3]: 10.1 | binding signal [4]: 10.1 | binding signal [5]: 10.2 | binding signal [6]: 10.2

GCGCGCGC [8-mer GCGCGCGC]
binding signal [1]: 10.4 | binding signal [2]: 10.4 | binding signal [3]: 10.2 | binding signal [4]: 10.2 | binding signal [5]: 10.3 | binding signal [6]: 10.4

AGGCGGGA [8-mer AGGCGGGA]
binding signal [1]: 10.2 | binding signal [2]: 10.2 | binding signal [3]: 10.2 | binding signal [4]: 10.2 | binding signal [5]: 10.2 | binding signal [6]: 10.3

CAGTTATC [8-mer CAGTTATC]
binding signal [1]: 11.2 | binding signal [2]: 10.7 | binding signal [3]: 11.1 | binding signal [4]: 10.7 | binding signal [5]: 10.7

AAATTGTT [8-mer AAATTGTT]
binding signal [1]: 11.4 | binding signal [2]: 10.6 | binding signal [3]: 11.1 | binding signal [4]: 10.7 | binding signal [5]: 10.8

ACATATTA [8-mer ACATATTA]
binding signal [1]: 11.8 | binding signal [2]: 10.8 | binding signal [3]: 11.4 | binding signal [4]: 10.9 | binding signal [5]: 11

AGGGACCG [8-mer AGGGACCG]
binding signal [1]: 10.3 | binding signal [2]: 10.2 | binding signal [3]: 10.4 | binding signal [4]: 10.2 | binding signal [5]: 10.1 | binding signal [6]: 10.2

CAATTTAG [8-mer CAATTTAG]
binding signal [1]: 12 | binding signal [2]: 10.8 | binding signal [3]: 11.6 | binding signal [4]: 10.7 | binding signal [5]: 10.9 | binding signal [6]: 11.4

CGCAGCGC [8-mer CGCAGCGC]
binding signal [1]: 10.1 | binding signal [2]: 10.1 | binding signal [3]: 10.1 | binding signal [4]: 10 | binding signal [5]: 10.2 | binding signal [6]: 10.2

ATTAGGGG [8-mer ATTAGGGG]
binding signal [1]: 12.1 | binding signal [2]: 10.6 | binding signal [3]: 11.9 | binding signal [4]: 10.5 | binding signal [5]: 10.6 | binding signal [6]: 11.3

AATTGCAT [8-mer AATTGCAT]
binding signal [1]: 11.7 | binding signal [2]: 10.8 | binding signal [3]: 11.4 | binding signal [4]: 10.8 | binding signal [5]: 11

ATGAGTAA [8-mer ATGAGTAA]
binding signal [1]: 11.1

CTCAATAA [8-mer CTCAATAA]
binding signal [1]: 11.4 | binding signal [2]: 10.6 | binding signal [3]: 11.2 | binding signal [4]: 10.6 | binding signal [5]: 10.8

CGCCGGAC [8-mer CGCCGGAC]
binding signal [1]: 10.2 | binding signal [2]: 10.1 | binding signal [3]: 10.2 | binding signal [4]: 10 | binding signal [5]: 10 | binding signal [6]: 10.2

TAGTAACA [8-mer TAGTAACA]
binding signal [1]: 11.1

GACGCCCC [8-mer GACGCCCC]
binding signal [1]: 10.2 | binding signal [2]: 10 | binding signal [3]: 10.2 | binding signal [4]: 10 | binding signal [5]: 10 | binding signal [6]: 10.3

CCGCCCGG [8-mer CCGCCCGG]
binding signal [1]: 9.97 | binding signal [2]: 10 | binding signal [3]: 10.1 | binding signal [4]: 9.87 | binding signal [5]: 10 | binding signal [6]: 10.1

ATGATACA [8-mer ATGATACA]
binding signal [1]: 11

TTAACGAA [8-mer TTAACGAA]
binding signal [1]: 11.4 | binding signal [2]: 10.5 | binding signal [3]: 11.3 | binding signal [4]: 10.4 | binding signal [5]: 10.5

GGCGGAAC [8-mer GGCGGAAC]
binding signal [1]: 10.2 | binding signal [2]: 10.1 | binding signal [3]: 10.2 | binding signal [4]: 10.1 | binding signal [5]: 10.1 | binding signal [6]: 10.2

GGAAATGA [8-mer GGAAATGA]
binding signal [1]: 11
